Reference: the BET-seq Pho4 binding data (Le et al. 2018)
This is one part of the list. The energies were worked out here from pooled read counts, against the library average; single values are noisy.

Biological target: T1, Pho4 (S. cerevisiae) (UniProt P07270)
T1 sequence: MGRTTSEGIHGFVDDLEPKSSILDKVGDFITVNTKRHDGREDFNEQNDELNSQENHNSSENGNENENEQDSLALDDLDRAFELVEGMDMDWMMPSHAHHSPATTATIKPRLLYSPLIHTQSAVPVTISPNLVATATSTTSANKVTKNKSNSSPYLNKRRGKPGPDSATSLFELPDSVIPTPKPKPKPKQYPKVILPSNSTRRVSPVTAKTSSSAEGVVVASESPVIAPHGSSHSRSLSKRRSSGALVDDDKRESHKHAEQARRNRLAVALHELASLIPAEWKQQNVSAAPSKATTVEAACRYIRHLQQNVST
Assay: relative binding free energy (BET-seq); higher = weaker binding
Settings: reference: library average

| Sequence | relative binding free energy [kcal/mol] |
| --- | --- |
| TATGTCACGTGGGGGT | -0.08 |
| GCGGGCACGTGCTGTA | -0.04 |
| TCGGACACGTGGTGTG | 0.12 |
| AGGCACACGTGATTGT | 0.11 |
| AGGAGCACGTGGTCTG | -0.1 |
| ATGGTCACGTGGGTAT | 0.01 |
| TTTTACACGTGGGGTT | -0.04 |
| TTCGTCACGTGCTTTG | 0.19 |
| GATTGCACGTGAGGTA | 0.26 |
| TTTTACACGTGAAGAA | 0.36 |
| CAGTGCACGTGGAGGA | -0.02 |
| TTGATCACGTGGCTAT | 0.15 |
| ATAGGCACGTGTAACT | 0.07 |
| TTTTGCACGTGTGTAC | 0.07 |
| AGTAGCACGTGGTTCA | -0.2 |
| AGTAGCACGTGAATAT | 0.29 |
| ACGCGCACGTGGCGGG | -0.19 |
| TGCAACACGTGTTAGT | -0.03 |
| CCTGGCACGTGGCGGT | -0.21 |
| ATTTTCACGTGGATAG | 0.2 |
| GTAGCCACGTGAAGGT | 0.26 |
| TGCTACACGTGGGTCG | -0.13 |
| TTGTTCACGTGTCGGG | 0.39 |

| Sequence | relative binding free energy [kcal/mol] |
| --- | --- |
| TTGTGCACGTGTGTTG | 0.11 |
| AGGTCCACGTGGAGTG | -0.06 |
| ATGGGCACGTGTCATT | -0.06 |
| ATGGACACGTGGGTCG | -0.15 |
| TTAAACACGTGTTAAT | 0.09 |
| GTATACACGTGGAGTA | -0.04 |
| TAAATCACGTGGGCTG | -0.01 |
| ATAAACACGTGGGGAG | -0.09 |
| TTGATCACGTGACGGG | 0.26 |
| GGAGGCACGTGAGAGT | 0.2 |
| GGGCGCACGTGGAAGT | -0.04 |
| TTGCACACGTGCGGTT | 0.19 |
| GCAAGCACGTGGGCGG | -0.3 |
| AAGTACACGTGAATTT | 0.31 |
| TGTTACACGTGTAGGG | 0.13 |
| CGTGTCACGTGTCTGG | -0.02 |
| AGATGCACGTGTGCGA | 0.06 |
| GAGTTCACGTGTGGAT | 0.45 |
| CGTGCCACGTGTTATG | -0.09 |
| TGGATCACGTGATATT | 0.2 |
| TATAGCACGTGAGGTA | 0.09 |
| TTCAGCACGTGAGTGA | 0.19 |
| GTTATCACGTGGTTTG | 0.07 |

| Sequence | relative binding free energy [kcal/mol] |
| --- | --- |
| TGAGGCACGTGAAGTT | 0.23 |
| GATAGCACGTGGTGGA | -0.09 |
| TTTTTCACGTGTACCG | 0.33 |
| TAAGGCACGTGTCCGG | -0.11 |
| GGGGTCACGTGTTCAT | 0.18 |
| TGAAACACGTGGGTCA | -0.04 |
| AGCTACACGTGGGGTT | -0.04 |
| TTGTGCACGTGCGTAG | -0.04 |
| GAATTCACGTGGGATA | 0.39 |
| AAGGACACGTGAAGGT | 0.18 |
| TAGCGCACGTGTATGG | -0.07 |
| CTTGTCACGTGGGGTA | -0.08 |
| TGAAGCACGTGAGTTA | 0.13 |
| GGTGGCACGTGTGAAG | 0.1 |
| CTTGTCACGTGCGCGG | -0.1 |
| GTTATCACGTGTTTCA | 0.14 |
| ACGATCACGTGTGGAT | 0.27 |
| TTGCGCACGTGTGGTA | -0.14 |
| TGTGGCACGTGATTTA | -0.01 |
| TCTTGCACGTGGTAGG | -0.04 |
| ATTTTCACGTGTCGTA | 0.42 |
| CGTGGCACGTGGATGT | 0.04 |
| CTATACACGTGGTTGG | -0.02 |

| Sequence | relative binding free energy [kcal/mol] |
| --- | --- |
| TCATTCACGTGAATGG | 0.35 |
| TGGTACACGTGCTCTT | 0.08 |
| TGTGTCACGTGTGACA | 0.12 |
| TTAAGCACGTGTGTCT | -0.04 |
| GGTGGCACGTGCGGCT | -0.12 |
| CGTTTCACGTGGGTAA | 0.18 |
| AGGGGCACGTGTGGCC | -0.02 |
| TAGGTCACGTGTCGAT | 0.15 |
| AAGTTCACGTGTATAA | 0.34 |
| TTTAACACGTGTGATG | 0.07 |
| TAAATCACGTGATTTG | 0.1 |
| TTGCGCACGTGGAGAT | -0.04 |
| GGGGTCACGTGGCGGA | 0.09 |
| GAGTTCACGTGGAATA | 0.32 |
| AATTTCACGTGAGTGA | 0.33 |
| TTTCACACGTGTGGGG | 0.11 |
| ATGATCACGTGGCGTT | 0.1 |
| GGTAGCACGTGCGTGA | -0.1 |
| TGGTTCACGTGTCCAG | 0.31 |
| CTCTTCACGTGTTATG | 0.33 |
| GGTCCCACGTGGGGTT | -0.34 |
| TTAGCCACGTGATAGG | 0.22 |
| ATATACACGTGGAAGG | -0.01 |

| Sequence | relative binding free energy [kcal/mol] |
| --- | --- |
| TATGACACGTGATAGT | 0.2 |
| TGGTTCACGTGTGCGT | 0.13 |
| TTGAACACGTGGACGG | 0.23 |
| CGTGACACGTGAATGT | 0.39 |
| CGTATCACGTGTTATT | -0.01 |
| GCATACACGTGGTGTT | -0.03 |
| GTGGCCACGTGGCGGC | -0.04 |
| GGTTACACGTGCGGGG | 0.1 |
| GGGTACACGTGTATGT | 0.08 |
| GGTCTCACGTGAGTTT | 0.32 |
| CTTGACACGTGGGTGC | -0.22 |
| GGTGCCACGTGGGTGC | -0.33 |
| TGAGGCACGTGTACGT | -0.12 |
| GTAGTCACGTGTTGGG | 0.11 |
| GTGTACACGTGGGGTA | -0.08 |
| AATGGCACGTGTGTGC | -0.13 |
| AGGTTCACGTGTAAGG | 0.32 |
| AGGGACACGTGTCTAG | 0.02 |
| CTAAGCACGTGTGATG | 0.01 |
| ATGGACACGTGGGCTT | -0.1 |
| GTGGACACGTGCGTGA | 0.07 |
| CGTCGCACGTGTTAGG | -0.06 |
| AGTTGCACGTGGAGAA | -0.02 |
